Reference: a compilation of properties of binary mixtures (doi:10.1016/j.molliq.2021.116094)
Some of these densities may be calculated back from excess volumes.

Experiment: xn = mol fraction of the nth substance listed
Conditions: 101 kPa

COCCCC[n+]1ccn(C)c1.NCC(=O)[O-] + O
mass density [kg/m3]
Conditions | 288.15 K | 293.15 K | 298.15 K | 303.15 K | 308.15 K | 313.15 K | 318.15 K | 323.15 K | 328.15 K
x1 = 0.8079 | 1167.2 | 1164.2 | 1160.8 | 1157.1 | 1153.4 | – | 1146 | 1142.4 | 1138.5
x1 = 0.8371 | – | – | 1161 | 1157.3 | – | 1150 | 1146.2 | 1142.6 | 1138.8
x1 = 0.8684 | – | 1164.6 | 1161.2 | 1157.5 | 1153.8 | 1150.2 | 1146.4 | – | 1139.1
x1 = 0.9018 | 1168 | 1164.8 | 1161.4 | 1157.8 | 1154.1 | 1150.4 | 1146.7 | – | 1139.3
x1 = 0.9376 | – | 1165.1 | 1161.7 | 1158 | – | 1150.7 | – | – | 1139.6

CC(N)C(=O)[O-].COCCCCn1cc[n+](C)c1 + O
mass density [kg/m3]
Conditions | 288.15 K | 293.15 K | 298.15 K | 303.15 K | 308.15 K | 313.15 K | 318.15 K | 323.15 K | 328.15 K
x1 = 0.801 | 1161.7 | 1158.1 | – | 1150.8 | 1147.1 | 1143.4 | 1139.7 | – | 1132.3
x1 = 0.8294 | 1161.9 | 1158.3 | 1154.6 | 1151 | – | 1143.6 | 1139.9 | 1136.3 | –
x1 = 0.8618 | 1162.1 | 1158.5 | 1154.8 | 1151.2 | 1147.5 | 1143.8 | 1140.1 | 1136.5 | –
x1 = 0.9002 | 1162.3 | 1158.7 | 1155 | – | 1147.7 | – | – | 1136.7 | 1133
x1 = 0.9343 | 1162.4 | 1158.8 | – | 1151.5 | 1147.8 | 1144.2 | 1140.5 | – | 1133.2
